About 160 (5.9%) of roughly 2,700 compounds showed an effect of 50% or more. This is one part of the list.

The target of the experiment is Nonstructural protein 3 (Zika virus) (UniProt A0A024AXB9).
The mark [1] stands for this setting: PRVABC59, Concentration 15.0 uM, Number of replicates 1.0.
[2] abbreviates: PRVABC59, Concentration 50.0 uM, Number of replicates 1.0.

Chain of UniProt A0A024AXB9 (A0A024AXB9 as listed by the source): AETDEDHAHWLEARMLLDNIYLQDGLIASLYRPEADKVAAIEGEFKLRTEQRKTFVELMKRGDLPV

The term inhibition denotes the relative decrease from the control value, in per cent. Consider `Cc1cc(CO)c2cccc(NCc3c(C)noc3C)c2n1`, for which, for the setting “PRVABC59, Concentration 99.9 uM, Number of replicates 2.0, Standard deviation 0.41367502705709386 %”, the inhibition is -9.09%.

With `c1cnc(N2CCOCC2)c(CN2CC[C@H](c3c[nH]c4ccccc34)C2)c1`, the inhibition by setting is: (PRVABC59, Concentration 49.5 uM, Number of replicates 2.0, Standard deviation 0.5816150455075427 %) 4.93%; (PRVABC59, Concentration 99.01 uM, Number of replicates 2.0, Standard deviation 1.6761828626765602 %) 10.2%; (PRVABC59, Concentration 198.0 uM, Number of replicates 2.0, Standard deviation 1.4600963075359947 %) 18.9%.

Consider `CC(=O)N[C@@H](CCCN)C(=O)Nc1ccccc1Cc1cccc2c(CO)cc(C)nc12`, for which the inhibition amounted to 11.2% (PRVABC59, Concentration 49.95 uM, Number of replicates 2.0, Standard deviation 1.2164295290794762 %) and 30.6% (PRVABC59, Concentration 99.9 uM, Number of replicates 2.0, Standard deviation 0.5089666913167087 %).

On to `Cc1cc(CO)c2cccc(CC(=O)N[C@@H](CCC(N)=O)C(=O)O)c2n1`, for which the inhibition (PRVABC59, Concentration 49.95 uM, Number of replicates 2.0, Standard deviation 0.13741625923449508 %) stood at 69.6% and the inhibition (PRVABC59, Concentration 99.9 uM, Number of replicates 2.0, Standard deviation 0.11197439842459092 %) turned out to be 81.6%.

As for `Cc1cc(CO)c2cccc(Cc3ccccc3NC(=O)CN3CCOCC3)c2n1`, the inhibition by setting is: (PRVABC59, Concentration 49.95 uM, Number of replicates 2.0, Standard deviation 1.084098076383578 %) 0.101%; (PRVABC59, Concentration 99.9 uM, Number of replicates 2.0, Standard deviation 0.7329111048936454 %) 5.2%.

Consider `CN(Cc1c(Cl)cccc1Cl)C(=O)c1cc(Cl)ccc1NS(=O)(=O)c1ccc(Oc2ccccc2Cl)cc1`, for which the inhibition under setting [1] is 10.4%.

With `O=Cc1ccc(N2CCC(C(=O)Nc3cc(Br)cc(C(F)(F)F)c3)CC2)cc1`, the inhibition under setting [2] turned out to be 21.9%.

As for `O=C(c1ccn([C@H]2CCCNC2)n1)N1CCC[C@H](c2ccccc2)C1`, the inhibition (PRVABC59, Concentration 49.5 uM, Number of replicates 2.0, Standard deviation 1.6630114667547238 %) was determined as 2.87%; the inhibition (PRVABC59, Concentration 99.01 uM, Number of replicates 2.0, Standard deviation 1.0930112497598132 %) stood at 3.54%; the inhibition (PRVABC59, Concentration 198.0 uM, Number of replicates 2.0, Standard deviation 1.7937643092396465 %) was determined as 3.5%.

For `O=C(Nc1ccc(-c2ccccn2)cc1)c1cc(Cl)ccc1NS(=O)(=O)c1ccc(Oc2ccccc2Cl)cc1`, the inhibition under setting [1] stood at 58.7%.

As to `O=Cc1ccc(N2CCC(C(=O)NCc3ccc(Br)cc3F)CC2)cc1`, for the setting “PRVABC59, Concentration 10.0 uM, Number of replicates 1.0”, the inhibition came out at 17.2%.

Take `CSc1ncc(C#N)c(NC(=O)c2cc(Cl)ccc2NS(=O)(=O)c2ccc(Oc3ccccc3Cl)cc2)n1`: under setting [1], the inhibition amounted to 21.8%.

Consider `CC(C)Sc1ccccc1NC(=O)C1CCN(c2ccc(C=O)cc2)CC1`, for which the inhibition under setting [2] stood at 16.3%.

As to `O=C(Nc1ccc([N+](=O)[O-])cc1Cl)c1cc(Cl)ccc1NS(=O)(=O)c1ccc(Oc2ccccc2Cl)cc1`, under setting [1], the inhibition amounted to 24%.

Turning to `O=C(NCCc1c[nH]c2cccnc12)[C@@]1(c2ccc(F)cc2)CCCNC1`, the inhibition (PRVABC59, Concentration 49.5 uM, Number of replicates 2.0, Standard deviation 1.1099611949443484 %) was found to be 2.3%; the inhibition (PRVABC59, Concentration 99.01 uM, Number of replicates 2.0, Standard deviation 0.8664361984862207 %) is -0.092%; the inhibition (PRVABC59, Concentration 198.0 uM, Number of replicates 2.0, Standard deviation 1.4816570758007732 %) is -1.42%.

Turning to `C[C@@H](c1ccccc1)N(C(=O)C1CCN(c2ccc(C=O)cc2)CC1)[C@@H](C)c1ccccc1`, the inhibition under setting [2] came out at 26.7%.

In the case of `O=C(NC[C@H](c1cccnc1)N1CCOCC1)c1cc(Cl)ccc1NS(=O)(=O)c1ccc(Oc2ccccc2Cl)cc1`, under setting [1], the inhibition was found to be 2.85%.
